From PubChem BioAssay AID504832 (National Center for Advancing Translational Sciences (NCATS), 2011)
Among all 310,000 compounds or so, about 18,000 (5.8%) were called active. This list was built around the results that the source calls inconclusive (neither active nor inactive); the mix of calls is not that of the screen. Calls come from the whole dose curve; as a rule, active = well fitted inhibition curve with a large enough effect; inconclusive = small, poorly fitted or top-dose-only effect, or another doubt; inactive = no such curve, though single readings can be large or run the other way. Potencies of inconclusive entries are left out as doubtful fits.

test: Primary qHTS for delayed death inhibitors of the malarial parasite plastid, 48 hour incubation; settings: P. falciparum luciferase growth in erythrocytes; series mostly up to 28.7 µM
Procedure, shortened: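 Read-out is firefly luciferase luminescence from an integrated reporter in P. falciparum, so falling signal marks reduced parasite growth. Infected erythrocytes were at 2% hematocrit and 0.1% parasitemia (final) in Albumax-supplemented RPMI 1640.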
Potency is the fitted concentration of half-maximal effect; tags give direction and shape of the fitted curve.

SMILES	Potency
COc1cccc(CNC(=O)COc2cc3c(c4oc(=O)cc(C)c24)CCC(C)(C)O3)c1	active: 9.28 µM
N#Cc1ccc(S(=O)(=O)N2CCC(C(=O)N3CCN(Cc4ccc5c(c4)OCO5)CC3)CC2)cc1	inconclusive [inhibitor, partial curve, poor fit]
COC(=O)c1sc(N)c(C(=O)OC)c1CSc1nnnn1C	active: 10.4 µM
O=c1cc(CN2CCN(c3ccccc3)CC2)c2cc(O)c(-c3ccccc3)cc2o1	active: 2.62 µM
O=C(NCC1CCCO1)C12CN(Cc3ccccc3)CC1C(c1cccc([N+](=O)[O-])c1)=NO2 (stereo unspecified)	inconclusive [inhibitor, single point]
C=CCn1c(CCNC(=O)c2ccccc2F)nnc1SCC(=O)Nc1ccccc1F	inconclusive [inhibitor, single point]
CCOCCCN1C(=O)CN(C2CCCCC2)C(=O)C1c1ccc(OCC)c(OC)c1 (stereo unspecified)	inconclusive [inhibitor, partial curve, poor fit]
O=S1(=O)CC2N=C(N(Cc3c(F)cccc3Cl)c3ccccc3F)SC2C1 (stereo unspecified)	inconclusive [inhibitor, partial curve]
Cc1cc(C)cc(C(=O)Nc2ccncc2)c1	inconclusive [inhibitor, single point]
CCCOc1ccc(C(O)C(CN2CCOCC2)c2ccccc2)cc1 (stereo unspecified)	active: 8.28 µM
CCOCCCNC(=S)N1CCN(C(=O)C(=O)Nc2ccc(C(=O)OC)cc2)CC1	inconclusive [inhibitor, partial curve]
CC(C)Oc1ccc2nnnn2n1	inconclusive [inhibitor, partial curve, poor fit]
CN1CCN(C(=S)c2cn(CCOc3ccccc3F)c3ccccc23)CC1	inconclusive [inhibitor, single point]
CCc1ccc(C(O)(C(C)C)C(CN2CCOCC2)c2ccccc2)cc1 (stereo unspecified)	active: 5.22 µM
CCOc1ccc2nc(N(CCCN(C)C)C(=O)c3ccc(S(=O)(=O)N4CCc5ccccc5C4)cc3)sc2c1	inconclusive [inhibitor, single point]
COc1ccc(C(=O)COC(=O)CN2CC(=O)Oc3ccccc32)cc1Br	inconclusive [inhibitor, single point]
CCOC(=O)c1ccc(NC(=O)NC2CC3CCC(C2)N3Cc2nnnn2Cc2ccco2)cc1 (stereo unspecified)	inconclusive [inhibitor, full curve]
O=S(=O)(c1ccccc1)c1nc(-c2ccc(F)cc2)oc1NCC1CCCO1 (stereo unspecified)	inconclusive [inhibitor, single point]
NS(=O)(=O)c1ccc(CCNC(=O)c2cc(-c3cc(Cl)ccc3O)n[nH]2)cc1	inconclusive [inhibitor, single point]
CC1CN(C(=O)c2ccccc2Oc2ccccc2)CC(C)O1 (stereo unspecified)	inactive
O=C(NCC(c1cccs1)N1CCOCC1)c1cccnc1 (stereo unspecified)	inconclusive [inhibitor, partial curve, poor fit]
COc1c(C)cc(C(=O)C2CCCN(Cc3cccc(C)n3)C2)cc1C (stereo unspecified)	inconclusive [inhibitor, full curve]

SMILES	Potency
CC(=O)N1CCOc2ccc(S(=O)(=O)N3CCN(c4cccc(C(F)(F)F)c4)CC3)cc21	inconclusive [inhibitor, partial curve, poor fit]
CCCSCCCNC(=O)Cn1c(=O)c2cccn2c2ccccc21	inactive
S=C(NCCCn1ccnc1)Nc1ccc(Cl)cc1Cl	inconclusive [inhibitor, partial curve]
CCc1cccc(CC)c1NC(=S)NCc1ccc2c(c1)OCO2	inconclusive [inhibitor, single point]
CCc1ccc(C(=O)C(C)OC(=O)Cc2n[nH]c(=O)c3ccccc23)cc1 (stereo unspecified)	inactive
COC(=O)c1cccc(COC(=O)c2cccnc2SC)c1	inactive
S=c1[nH]nc(-c2cc(-c3ccccc3)n[nH]2)n1/N=C/C(Br)=C/c1ccccc1	active: 5.22 µM
COC(=O)CN1C(=S)N(c2ccc(F)cc2)C(=O)C1CC(=O)Nc1ccc(F)cc1 (stereo unspecified)	active: 10.4 µM
Cc1cc(C)c2c(N)c(C(=O)Nc3ccc(C)c(C)c3)sc2n1	inactive
Cc1ccc(-n2nnnc2SCC(=O)N2CCNC2=O)cc1C	inconclusive [inhibitor, single point]
Cc1cccc2cc(CN(CC3CCCO3)C(=O)NC3CCCCC3)c(=O)[nH]c12 (stereo unspecified)	inconclusive [inhibitor, single point]
Cc1ccc(C)c(NC(=S)N2CCN(S(=O)(=O)c3ccccc3)CC2)c1	inconclusive [inhibitor, full curve]
CCOc1ccccc1CNC(=O)c1ccccc1NC(=O)C1=CSCCO1	inconclusive [inhibitor, single point]
COc1cc(C(=O)N2CCN(c3ncnc4sc(C)c(C)c34)CC2)cc(OC)c1OC	inconclusive [inhibitor, partial curve]
CN(Cc1cccc2cnccc12)C(=O)c1cc(COc2ccc(F)cc2Cl)on1	inconclusive [inhibitor, single point]
CCn1c2ccccc2c2cc(N=C3SC(CC(=O)Nc4ccccc4)C(=O)N3C)ccc21 (stereo unspecified)	inconclusive [inhibitor, partial curve]
CN(C)CCNc1nc2sc3c(c2c(=O)n1-c1ccc(F)cc1)CCCCC3	active: 10.4 µM
Cc1ccc2nc(N(CCN3CCOCC3)C(=O)CCS(=O)(=O)c3ccccc3)sc2c1	inactive
CSCc1cccc(C(=O)OC(C)C(=O)Nc2c(C)n(C)n(-c3ccccc3)c2=O)c1 (stereo unspecified)	inactive
CCCCN(CCCC)c1nc2ccccc2nc1C(C#N)C(=O)NCCCOC (stereo unspecified)	inconclusive [inhibitor, full curve, poor fit]
CCCn1c(SCC(=O)Nc2cc(Cl)ccc2OC)nc(O)cc1=O	inconclusive [inhibitor, single point]
O=C(Nc1csc([N+](=O)[O-])c1)Nc1ccccc1Cl	inconclusive [inhibitor, single point]

SMILES	Potency
O=C(c1nc2n(n1)C(c1ccc(Cl)cc1)C=C(c1ccccc1)N2)N1CCOCC1 (stereo unspecified)	active: 4.15 µM
COc1cccc(/C=N/NC(N)=S)c1OCc1cccc(Cl)c1	active: 11.7 µM
COc1ccc(C2CC(c3ccccc3)=NN2C(=O)COC(=O)C2(C)CC2(Cl)Cl)cc1 (stereo unspecified)	inconclusive [inhibitor, partial curve, poor fit]
CO/N=C(\Cn1ncc(NC2CCCCC2)c(Br)c1=O)c1ccc(Cl)cc1	inconclusive [inhibitor, partial curve, poor fit]
CCCC(C(=O)Nc1ccc(S(=O)(=O)Nc2ncccn2)cc1)c1ccccc1 (stereo unspecified)	inactive
Cc1ccc(-c2noc(CCCC(=O)Nc3cccnc3)n2)cc1	inconclusive [inhibitor, partial curve]
CCCN1C(=O)c2cc(C(=O)Nc3ccccc3C)ccc2C1Nc1ccccc1C (stereo unspecified)	inconclusive [inhibitor, partial curve]
CCOc1cccc2sc(N(CCN(C)C)C(=O)c3cc4ccccc4cc3OC)nc12	inconclusive [inhibitor, partial curve]
O=C(CO/N=C/c1ccc(OC(F)F)cc1)N1CCc2ccccc21	inactive
Cc1ccc(Nc2nnc(-c3ccncc3)s2)c(Br)c1	inconclusive [inhibitor, partial curve, poor fit]
CC(=O)N1CCN(S(=O)(=O)c2cccc(C(=O)OCC(=O)N3CC(=O)Nc4ccccc43)c2)CC1	inactive
Cc1ccc([N+](=O)[O-])c(OCC(=O)OCC(=O)c2ccccc2)c1	inactive
Cc1ccccc1-c1nc(CN2CCCC(C(=O)NCc3cccnc3)C2)c(C)o1 (stereo unspecified)	inconclusive [inhibitor, single point]
CCOc1ccc(CCNC(=O)c2ccc(CNS(=O)(=O)c3ccccc3)cc2)cc1OCC	inconclusive [inhibitor, partial curve, poor fit]
COc1ccc(NC(=O)C(=O)NCCN2CCN(C(=O)C(c3ccccc3)c3ccccc3)CC2)cc1	inconclusive [inhibitor, partial curve]
Cc1cccc(OCCC(=O)Nc2ccc(F)c(F)c2)c1	inconclusive [inhibitor, full curve, poor fit]
Cc1ccc(OCC(=O)Nc2ccc3c(c2)nc(CCN2CCCCC2)n3C)cc1	inconclusive [inhibitor, single point]
Cc1c(C)c2ccc(OC(C)C(=O)NC3CCN(Cc4ccccc4)CC3)cc2oc1=O (stereo unspecified)	inconclusive [inhibitor, single point]
Cc1csc(SCCn2c(N3CCN(c4ccccc4)CC3)nc3c2c(=O)[nH]c(=O)n3C)n1	inconclusive [inhibitor, single point]
Cc1nnc(NC(=O)C2CCN(S(=O)(=O)c3ccc(F)c(Cl)c3)CC2)o1	active: 6.57 µM
O=C(c1ccc(=O)n(Cc2ccccc2)n1)N1CCN(C/C=C/c2ccccc2)CC1	inconclusive [inhibitor, partial curve, poor fit]
COc1ccccc1N/C(=N/S(=O)(=O)c1ccc(Cl)cc1)c1ccccc1	inconclusive [inhibitor, partial curve, poor fit]
